Test results reported in publication PMC10790753, “TLR4 sensing of IsdB of Staphylococcus aureus induces a proinflammatory cytokine response via the NLRP3-caspase-1 inflammasome cascade” (mBio, 2023).

Molecular target: T1, Human TLR4 recombinant active protein (human, UniProt O00206 in part, labelled with RED-NHS 2nd generation dye (NHS ester on primary amines, degree of labelling 0.8) in the MST; unlabelled in the ELISA)
T1 construct: Toll-like receptor 4, human; without MD-2; also called rhTLR4; recombinant human TLR4; source: bought: Abcam
T1 sequence (O00206 27-631): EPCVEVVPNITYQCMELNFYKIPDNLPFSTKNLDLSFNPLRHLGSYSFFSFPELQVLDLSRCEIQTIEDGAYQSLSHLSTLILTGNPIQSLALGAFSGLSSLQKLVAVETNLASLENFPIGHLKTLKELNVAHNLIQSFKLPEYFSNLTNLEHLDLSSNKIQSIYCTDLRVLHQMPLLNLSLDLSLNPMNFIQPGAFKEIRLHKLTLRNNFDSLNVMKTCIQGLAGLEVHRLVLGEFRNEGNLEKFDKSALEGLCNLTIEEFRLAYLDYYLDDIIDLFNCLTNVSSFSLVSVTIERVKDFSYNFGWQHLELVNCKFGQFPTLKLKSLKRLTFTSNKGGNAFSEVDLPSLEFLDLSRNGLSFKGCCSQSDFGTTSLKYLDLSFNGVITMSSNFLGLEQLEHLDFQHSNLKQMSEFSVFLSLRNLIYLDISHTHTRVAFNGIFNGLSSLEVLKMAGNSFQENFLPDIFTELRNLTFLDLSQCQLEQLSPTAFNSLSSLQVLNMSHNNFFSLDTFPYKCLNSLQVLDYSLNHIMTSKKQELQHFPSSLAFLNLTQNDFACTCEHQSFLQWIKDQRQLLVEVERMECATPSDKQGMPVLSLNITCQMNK
Assay: MST; rhTLR4 labelled with RED-NHS 2nd generation dye, diluted to 40 nM and mixed with an equal volume of each of 16 serial dilutions of IsdB or Lac-IsdB (3.6 µM to 0.1 nM); assay buffer with 0.05% Tween 20; 25°C; Monolith NT.115, 80% LED power, medium MST power; no MD-2
Conditions: both partners purified

B1: His6-tagged recombinant iron-regulated surface determinant protein B (IsdB) of Staphylococcus aureus, produced in E. coli (natural protein)
chain: not shown
modifications: biotin-conjugated in the ELISA (sites not given); unlabelled in the MST
notes: IsdB, iron-regulated surface determinant protein B, Staphylococcus aureus; plasmid pQE30/pSE111; also called recombinant IsdB; E. coli-derived IsdB; source: E. coli SCS1, purified (Ni2+ sepharose His-trap, LPS depleted with EndoTrap RED)
Kd: 98.3 nM

B2: His6-tagged recombinant IsdB of Staphylococcus aureus, produced in Lactococcus lactis (natural protein)
chain: not shown
notes: IsdB, iron-regulated surface determinant protein B, Staphylococcus aureus; also called Lac-IsdB; source: Lactococcus lactis PA1001, purified from the growth medium fraction (Ni2+ sepharose His-trap, dialysis)
Kd: 153 nM
